# Laboratory results: the supplement of paper PMC3334620
# Whole data set: some 33,000 sequences, median “E-score (-0.5 to 0.5)” near -0.054, cut for the highest 2% near 0.39. This is one part of the list.
# Target: Ylr278c (UniProt Q05854)
# Experiment: PBM E-score (8-mer binding enrichment) (E-score (-0.5 to 0.5)); higher = stronger / more preferred TF binding; most listed sequences are background and not binding sites
# Details: protein concentration: 200 nM; construct: GST-DNA-binding domain
# Summary of the method: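 GST-tagged yeast TFs (full-length or DNA-binding domain) were made by PURExpress in vitro transcription/translation and applied at about 100-200 nM to universal all-10-mer Agilent arrays. The arrays were made double-stranded by primer extension, on fresh or once-stripped slides. Bound protein was detected with fluorescent anti-GST, and scans were normalised with masliner. Each ungapped eight-base word, pooled with its reverse complement, received an E-score (modified Wilcoxon-Mann-Whitney statistic) from the Universal PBM Analysis Suite.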
row,Sequence,PBM E-score
1,AAGTTTGG,-0.00617
2,CGACAACG,0.102
3,AACTGCGG,0.329
4,ATTAACGA,0.0895
5,GACAGACA,0.166
6,AACATGTC,0.0207
7,CTGGAGGC,-0.095
8,AGTTTATC,0.0456
9,CTTTGCCA,-0.0989
10,ATTGCGGC,0.146
11,ATTATCTG,-0.0478
12,ACCGCAAA,0.0525
13,ATTCGGGA,0.207
14,CCATCGTA,-0.175
15,CCCGGGAA,0.348
16,AATTCTTA,-0.104
17,CATTGACG,-0.0686
18,CCGTAGCA,0.0425
19,GAACGAAA,-0.109
20,AGGTTAAC,-0.0568
21,CCAGTGGG,-0.0812
22,GGTACTTA,-0.00682
23,ATAGAGTC,-0.0754
24,ACCTTTGC,-0.0998
25,CCGTCCGA,0.345

row,Sequence,PBM E-score
1,ACACGTCC,-0.0504
2,AAGATCGC,-0.105
3,CCGGGAAG,0.334
4,AGAGTATG,-0.0782
5,CGATACAG,0.0562
6,CCAATTTC,0.186
7,AAATCGCT,0.0357
8,CAGTAGCC,-0.118
9,ATGGACAG,-0.0876
10,ATATCTCC,0.375
11,GTGAAGAA,-0.0132
12,AGGTGCAA,-0.134
13,GTCGAGAA,-0.164
14,GGAAATCA,0.125
15,CCCCAAAG,-0.254
16,CAACGAAG,-0.206
17,AAGGCCAG,-0.129
18,AGCGTACT,-0.155
19,CTACCAAG,-0.194
20,ATATGTTG,-0.0904
21,AGGGCGGG,0.228
22,AGACCAAT,-0.0851
23,TACTTGAA,-0.214
24,GCAGTACA,-0.148
25,GGATTACA,0.0913

row,Sequence,PBM E-score
1,ACACACAC,-0.177
2,CGAGAATA,0.0398
3,CATCGGCA,0.284
4,CATCTTGG,-0.113
5,AGTGATAT,-0.13
6,CGAAGTAC,0.104
7,GAAGGGGC,-0.115
8,TGAGAACA,-0.211
9,ATCCGCTC,0.307
10,AAACGCGA,-0.0617
11,GTCGCGTA,-0.0688
12,ATCGCCAT,-0.0309
13,ACTTATAG,-0.101
14,AAGCGAGT,0.0967
15,ATTAAAAG,-0.0816
16,ATAAAGAC,-0.109
17,ACCCCCAC,-0.25
18,TAAGGGGA,-0.0498
19,ATAACAAT,-0.0127
20,ATCATCGG,0.344
21,AGAGTCAT,-0.305
22,GCGCGTTA,0.137
23,AGCGTCAA,-0.115
24,ATTGACGC,-0.165
25,ACTTCGAA,-0.334

row,Sequence,PBM E-score
1,CAGTATCC,0.00965
2,CGGATAAC,0.369
3,GAACCGAC,0.157
4,GGGCGCAC,-0.0472
5,CTCCCTAC,-0.203
6,CGTGGTCA,-0.247
7,ATAAAATG,-0.0348
8,ACTCTGGC,-0.0437
9,AATATTAC,0.0239
10,AAGGACCA,-0.0395
11,ATATCGCA,-0.119
12,AGCGGGAT,0.168
13,ATTTCATG,-0.149
14,GATATGGC,0.0414
15,CCGGGAGG,0.261
16,CGAAATGA,0.127
17,CAGAAGGC,-0.118
18,CTGTTGGA,-0.194
19,AGACAGAA,-0.0904
20,ATTGAGTA,-0.0986
21,GGAGACTA,0.0463
22,ACAGATGG,-0.0742
23,AGGATGAC,-0.284
24,ATGGTCGA,-0.26
25,ACACGTGT,-0.331

row,Sequence,PBM E-score
1,GGAAGAGA,0.0892
2,CCGCCAGC,0.206
3,GAACGTCA,-0.231
4,CGGTATTA,0.27
5,CCCCGCTC,0.184
6,ACGGTCCA,-0.0988
7,CGATCAAC,-0.0846
8,GCTATATA,-0.166
9,TACACTAA,-0.212
10,ACATCACG,-0.125
11,ACCGCCCC,0.122
12,ATGAGATG,-0.114
13,AGCTTAAG,-0.229
14,AAAGAGCC,-0.152
15,ATGGCCTG,-0.135
16,CTTTGCTC,-0.0097
17,TAGCTGAA,-0.0659
18,GTCTGCAC,-0.0621
19,AACTAGGC,-0.27
20,CGCTTCCG,0.314
21,AGTTCCCG,0.237
22,AGCAAGAA,-0.166
23,CAGTCCTA,-0.265
24,CAGCGATG,-0.123
25,GAGCCAAC,-0.101

row,Sequence,PBM E-score
1,GAGTTGAC,0.0611
2,ACCGGACT,0.443
3,CATCAGAA,-0.271
4,GAAACCCC,0.25
5,AGGGCTGC,-0.0949
6,GGGTTTGA,0.0228
7,ATTTCGGA,0.45
8,GTGTGTCA,-0.177
9,GGACACGA,0.0337
10,GTTTATCA,0.0561
11,ACGAGTTG,-0.176
12,ACGCGTTA,-0.0656
13,GGAATGCA,0.163
14,AGAGACTG,-0.237
15,AGTTAGAT,-0.233
16,ATCACCGC,0.118
17,ACCGAGCA,0.181
18,ACTCGCCA,-0.0616
19,AACCTCGG,0.261
20,GGTTAGAC,-0.0628
21,CTTAGAAA,-0.145
22,CTGGATAC,-0.109
23,CTGCTCGC,-0.0426
24,CGCGCGGA,0.398
25,CTCGCCTC,-0.0537

row,Sequence,PBM E-score
1,ATTCTGCC,0.116
2,CAGAGACC,-0.231
3,AATAGAAG,-0.108
4,TAGCAGGA,0.00951
5,AAGTTCTG,-0.188
6,GGGCGAAA,0.0355
7,GGCCCTTA,-0.186
8,ACGTAATA,-0.252
9,AGGGTTCC,0.124
10,CCGGCGAC,0.346
11,ACAATAAC,-0.00208
12,GCAACTCA,0.00855
13,CTACCCAG,-0.26
14,CCGCATCC,0.204
15,TAGCCTGA,-0.19
16,CTGAAGCA,-0.322
17,ACAAAAGG,0.0804
18,ATTATAGA,-0.139
19,CACTTAGG,-0.125
20,CGGTTACG,0.182
21,CTCTTCGC,0.0532
22,CAGGGGAG,-0.0961
